Reference: the supplement of paper PMC10338343
± gives the standard deviation. This is a selection; strong and weak results do not stand in their true shares.

Tested on: MIWI (PIWIL1) piRISC loaded with L1MC piRNA (30 nt)
Assay: pre-steady-state target cleavage rate (min^-1); MIWI and MILI are mouse PIWI proteins and EfPiwi is from a freshwater sponge; tags in brackets are library labels; higher = faster piRNA-guided slicing of the target
Conditions: guide: L1MC piRNA 5'p-UAACUAAAUACUAUGCAAGCUGUAGGUCCU
In short: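 The pre-steady-state cleavage rate was calculated from a burst-and-steady-state fit. Data came from Cleave-'n-Seq, in which […] transcribed, DNA-blocked target RNA library was mixed with 1 nM active affinity-purified piRISC carrying one synthetic guide, with or without 500 nM GTSF1 partner protein, in HEPES–potassium acetate buffer at 33 °C for 0–8 or 0–960 min. Uncleaved targets were sequenced and normalised to depth and to weakly complementary targets, three trials were pooled, and k3 was capped at 0.0001 min^-1.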

[1] = auxiliary factor: 500 nM mouse GTSF1
[2] = auxiliary factor: none (no GTSF1)
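Note: 1 nM active piRISC with 0.1 nM target library at 33 °C single turnover.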

| Sequence | pre-steady-state target cleavage rate [1] | pre-steady-state target cleavage rate [2] |
| --- | --- | --- |
| UCCUGGUUGAGCUUGCAUAGUAUUUAGUUA | 0.59 ± 0.035 | 0.0369 ± 0.0084 |
| UCCUGGAUGAGCUUGCAUAGUAUGUAGUUA | 0.358 ± 0.046 | 0.0221 ± 0.005 |
| UCCUCCUACAGCUUGCAUAGUAUUUAGAAA | 0.412 ± 0.048 | 0.00541 ± 0.0029 |
| UCCACCUUCAGCUUGCAUAGAAUUUAGUUA | 0.277 ± 0.043 | 0.0115 ± 0.0024 |
| UCGACCUACAGCUUGCAUAGAAUUUAGUAA | 0.507 ± 0.054 | 0.0158 ± 0.0044 |
| AGGAGCUACAGCUUGCAUAGUAUUAAGUUA | 0.783 ± 0.065 | 0.0457 ± 0.0092 |
| UCGACCUACAGCUUGCAUAGUAUUUACUUA | 0.373 ± 0.03 | 0.0486 ± 0.0097 |
| UGGACCUACAGCUUGCAUACAAUUUAGUUA | 0.00897 ± 0.0029 | 0.0035 ± 0.0017 |
| UCCUGGAUCAGCUAGCAUUGUAUUUAGUUA | 0.213 ± 0.017 | 0.00673 ± 0.0032 |
| UCCUGCUACAGCUUGGAUAGUAAUUAGUUA | 0.605 ± 0.058 | 0.0139 ± 0.0035 |
| UCCUGCUACAGCUUGCAAAGUAUUUUGUUA | 0.791 ± 0.053 | 0.0173 ± 0.0033 |
| UCCUGGUACAGCUUGCAUAGUACUUUAGUUA | 0.281 ± 0.036 | 0.00815 ± 0.0026 |
| UCGACCUACAGCUUGCAUAGAAAUUAGUUA | 0.248 ± 0.032 | 0.0042 ± 0.0022 |
| UCCUCCUACAGCUUGCAUACUUUUUAGUUA | 0.0511 ± 0.0091 | 0.00662 ± 0.0016 |
| AGGACCUACAGGUUGCAUAGUAUUUAGUUA | 1.1 ± 0.085 | 0.0899 ± 0.021 |
| UCCUCCUACAGCUUGCAUAGUUUAUAGUUA | 0.115 ± 0.017 | 0.0104 ± 0.002 |
| UCCACCUACAGCUUGCAUAGAAUUUAGAUA | 0.247 ± 0.037 | 0.00935 ± 0.0029 |
| UCCUGGAACAGCUUGCAUAGUAUUAAGUUA | 0.551 ± 0.04 | 0.0206 ± 0.0047 |
| UGGAGCUACAGCUUGCAUAGUUUUUAGUUA | 0.427 ± 0.019 | 0.0426 ± 0.0088 |
| UGGACCUACAGCUUGCAUAGUGAUUUAGUUA | 0.0529 ± 0.0082 | 0.00689 ± 0.0023 |
